In article PMC4336329 (PLoS ONE, 2015):
In all, about 310,000 compounds went through this assay and about 2,200 (0.71%) showed an effect of 50% or more. The effect is printed as a negative number. Some of the results follow.

Molecular target: human ether-à-go-go-related gene (hERG) potassium channel (human, UniProt Q12809)
Test: primary screen, population patch clamp on CHO cells stably expressing hERG

Sequence of human ether-à-go-go-related gene (hERG) potassium channel (Q12809 whole entry, looked up): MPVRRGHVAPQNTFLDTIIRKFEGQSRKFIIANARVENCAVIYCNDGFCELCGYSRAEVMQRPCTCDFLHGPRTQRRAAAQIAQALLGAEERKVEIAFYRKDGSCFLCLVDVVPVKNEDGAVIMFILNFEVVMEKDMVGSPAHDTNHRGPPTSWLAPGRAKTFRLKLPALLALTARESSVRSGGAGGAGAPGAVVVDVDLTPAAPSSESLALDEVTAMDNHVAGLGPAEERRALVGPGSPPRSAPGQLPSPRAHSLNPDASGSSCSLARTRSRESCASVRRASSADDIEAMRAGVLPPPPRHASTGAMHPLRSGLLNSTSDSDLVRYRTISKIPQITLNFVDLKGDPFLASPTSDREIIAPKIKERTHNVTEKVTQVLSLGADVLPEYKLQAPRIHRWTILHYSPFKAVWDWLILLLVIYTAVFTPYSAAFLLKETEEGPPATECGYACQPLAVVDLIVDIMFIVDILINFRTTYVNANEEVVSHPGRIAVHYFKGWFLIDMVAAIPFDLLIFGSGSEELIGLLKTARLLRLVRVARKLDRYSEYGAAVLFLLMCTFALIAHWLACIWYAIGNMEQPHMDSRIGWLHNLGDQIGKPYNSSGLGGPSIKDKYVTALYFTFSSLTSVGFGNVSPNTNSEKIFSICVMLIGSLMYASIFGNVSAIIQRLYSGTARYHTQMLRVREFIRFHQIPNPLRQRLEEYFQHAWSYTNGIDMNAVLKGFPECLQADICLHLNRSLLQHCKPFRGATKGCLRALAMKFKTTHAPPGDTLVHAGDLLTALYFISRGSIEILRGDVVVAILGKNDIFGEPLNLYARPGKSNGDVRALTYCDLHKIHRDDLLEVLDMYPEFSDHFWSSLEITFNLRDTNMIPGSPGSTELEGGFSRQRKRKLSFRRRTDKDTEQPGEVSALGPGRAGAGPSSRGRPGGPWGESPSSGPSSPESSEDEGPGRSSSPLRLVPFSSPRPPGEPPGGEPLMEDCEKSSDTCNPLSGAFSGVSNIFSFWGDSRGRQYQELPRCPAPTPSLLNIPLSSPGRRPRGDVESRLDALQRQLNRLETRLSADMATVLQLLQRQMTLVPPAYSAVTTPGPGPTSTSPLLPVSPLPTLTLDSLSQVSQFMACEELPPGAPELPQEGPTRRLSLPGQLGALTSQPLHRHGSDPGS

| Compound | hERG current change (%, negative = inhibition) at 1uM [%] |
| --- | --- |
| CC(C)(C)c1ccc(S(=O)(=O)N2CCCC2C(=O)NC2=NCCS2)cc1 (centres unmarked) | 6.31 |
| Cc1nc(NCCc2ccc(S(N)(=O)=O)cc2)c2c3c(sc2n1)CCC3 | 11.8 |
| O=C(OCc1cn(-c2ccc(Cl)cc2)nn1)c1ccccc1 | 8.04 |
| COc1ccc(CCNC(=O)COC(=O)c2ccc[nH]c2=O)cc1 | 4.6 |
| Cc1[nH]c2ccccc2c1/C=N\NC(=O)c1ccco1 | 12.5 |
| O=C(CN1C(=O)CCC1=O)Nc1nc2c(F)cc(F)cc2s1 | 4.42 |
| CCc1nn(CCCC(=O)Nc2ccc(C)c(C)c2)c(=O)c2cc3occc3n12 | 9.92 |
| CC1(C)C2CCC(C2)C1(C)NC(=O)CNC1CCCCC1.Cl (centres unmarked) | 20.8 |
| O=C(NCc1ccco1)c1nnc(Cc2ccc(Cl)cc2)o1 | 7.12 |
| Cc1c(Cl)cccc1NC(=O)c1cc(-c2ccccc2O)n[nH]1 | -4.4 |
| O=C1CC(c2ccccc2F)c2c(c3ccccc3[nH]c2=O)O1 (centres unmarked) | 19.8 |
| CCOCCc1nnc(NC(=O)C(C)Oc2ccccc2)s1 (centres unmarked) | 9.57 |
| O=C(CSc1nnnn1C1CCCC1)NCc1ccccc1 | 1.91 |
| CCNc1nc(CN2CCOCC2)nc2sc3c(c12)CCC3 | 3.05 |
| CCOc1ccccc1N1CCN(C(=S)NCc2ccccc2)CC1 | 11 |
| C=CCOC(=O)C(C#N)c1nc2ccccc2nc1N1CCCC1 (centres unmarked) | 16.4 |
| O=C(NNS(=O)(=O)c1ccccc1[N+](=O)[O-])c1ccncc1 | 7.49 |
| Cc1ccc2nc(-c3ccncc3)cc(C(=O)N3CCOCC3)c2c1 | 7.66 |
| CCOc1ccc(/C=N/Nc2ccc(C(F)(F)F)cc2[N+](=O)[O-])cc1O | -1.39 |
| Cc1ccc(C(=O)Oc2ccccc2N2C(=O)C3CCCCC3C2=O)cc1 (centres unmarked) | -1.27 |
| CC/C(=C/c1sc2ccc(C)cc2[n+]1CCO)SC.COS(=O)(=O)[O-] | 14.9 |
| CCCOc1cccc(-c2cc(C(=O)N/N=C/c3cccnc3)c3ccccc3n2)c1 | 16.6 |

| Compound | hERG current change (%, negative = inhibition) at 1uM [%] |
| --- | --- |
| CCCCN(C(=O)Cc1ccc2c(c1)OCCO2)c1c(N)n(CCC)c(=O)[nH]c1=O | 18.9 |
| CN(CC(=O)Nc1ccc(Cl)cc1F)C1CCS(=O)(=O)C1 (centres unmarked) | 2.32 |
| Cc1cc(C)cc(OCC(=O)OCC(=O)NCCC2=CCCCC2)c1 | 7.97 |
| CCc1cc(CC)c(/C=N/NC(N)=O)c(CC)c1 | 3.86 |
| O=c1c2ccccc2nc(-c2ccccc2)n1CCCN1CCOCC1 | 4.9 |
| Cc1ccc(CN2C(=O)CSC(C)C2=O)cc1 (centres unmarked) | 12.4 |
| CC(=O)c1cn(C(=O)c2ccc(Cl)cc2)c2ccccc12 | 14.2 |
| COC(=O)CCN(C(=O)c1ccc(N2CCCC2)c([N+](=O)[O-])c1)c1ccccn1 | 11.3 |
| Cc1ccc(C)c(NC(=O)CCc2ccc(C)o2)c1 | 11.8 |
| CC(C)CCNc1nc(N)c([N+](=O)[O-])c(NCCO)n1 | 15.4 |
| Cc1cc2oc3ccc(NCCC4CCCN4C)cc3c(=O)c2cc1C (centres unmarked) | 12.5 |
| O=C(c1ccccn1)N1CCN(S(=O)(=O)c2ccc3ccccc3c2)CC1 | 3.18 |
| Cc1c(O)nc(SCC(=O)Nc2ccc3c4c(cccc24)CC3)n(-c2ccccc2)c1=O | 14.9 |
| O=C(CSc1n[nH]c(-c2ccccn2)n1)Nc1ccccc1F | 11 |
| Cc1onc(-c2ccccc2Cl)c1C(=O)OCC(=O)c1ccc[nH]1 | 2.49 |
| C=C(C)CSc1nc2sc3c(c2c(=O)n1-c1ccc(OC)cc1)CCN(C)C3 | 9.61 |
| O=C(CSc1nc(O)cc(=O)[nH]1)N1c2ccccc2CCc2ccccc21 | 7.15 |
| O=C1C2C(c3ccccc3)CC=CC2[C@H](c2ccoc2)N1Cc1ccccc1 (some centres unmarked) | 8.12 |
| COc1ccc(/C=C/C(=O)NC2CCCCC2C)cc1 (centres unmarked) | 14.9 |
| COc1ccc(CCC(=O)NNC(=O)c2cc(Cl)ccc2OC)cc1 | 2.27 |
| Cc1cc(C)c2c(c1)/C(=N/NC(=O)c1cc(C)oc1C)CCC2 | 10.2 |
| CCCCCNC(=O)c1cn(CC)c2cc(N3CCN(C)CC3)c(F)cc2c1=O | 0.584 |
